From the supplement of paper PMC3334620
In all, about 33,000 sequences were measured (“E-score (-0.5 to 0.5)”: median about -0.054, highest 2% from about 0.39 on). This is one part of the list.

biological target: Ylr278c (UniProt Q05854); experiment: PBM E-score (8-mer binding enrichment) (E-score (-0.5 to 0.5)); higher = stronger / more preferred TF binding; most listed sequences are background and not binding sites; conditions: protein concentration: 200 nM; construct: GST-DNA-binding domain
Outline: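 Detection of bound protein used fluorescent anti-GST, with scans normalised by masliner. The proteins were GST-tagged yeast transcription factors applied at about 100-200 nM to universal all-10-mer Agilent arrays made double-stranded by primer extension. Each ungapped eight-base word, pooled with its reverse complement, was scored with an E-score from the Universal PBM Analysis Suite.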

Sequence	PBM E-score
AGAATAAC	-0.156
CGGTACAA	0.187
AGAAGCCT	-0.0867
CGGTAGAG	0.121
CGGCCCGC	0.223
AGGCTGGC	-0.223
AAACAACG	-0.0017
AGGCCTTG	-0.195
GAGGTCGA	-0.157
GTGGATAA	-0.0218
ACTCCGTC	0.459
GCCCGAAC	0.215
AGCTAGCC	-0.13
CCTCAACC	-0.293
CTCTCGGC	0.181
AAGTGGGA	0.0602
GGAAGGAA	-0.0382
AGTCCCTC	-0.137
ACTTGTGA	-0.263
AAGGTATG	-0.0741
ATTCGAGA	-0.196
GGTAGTAC	-0.0883
CTCCCGCA	0.243
GACATCAA	0.125
ACCCACCC	0.253

Sequence	PBM E-score
AGAAAGCA	-0.0831
TGAAAACA	-0.116
AACACAAG	-0.162
CGGCTTGC	0.156
AACACAGC	0.0155
ATCTATAC	-0.0439
CCACTCCC	0.0826
CAGGCGGC	0.0762
CATATCGA	-0.0441
GGTTGGGA	-0.108
CTCAACAC	-0.0996
ACACTTAT	-0.0994
ACCGTACT	-0.0306
AATCCTCT	-0.217
CACTTCAG	-0.0409
ACCGTTGA	-0.148
CTGACCCC	-0.0261
CAGTCTCG	-0.287
ATACAGGG	-0.00103
CTCTACTA	-0.245
ATACGCGA	-0.0101
AATACGAT	-0.0208
CCGATGCA	0.321
CCGGATCA	0.385
GTTGGCGA	0.0382

Sequence	PBM E-score
CCTGTGCC	-0.0999
GATAGCGA	-0.0967
ATACCGCA	0.171
CTGGTCCA	-0.0757
CCAGCTAG	-0.391
AGAAGAAG	-0.0903
CTCAGGCA	-0.005
ATACAGAG	-0.265
GCCGCAAC	0.204
AGTACGTG	-0.202
ATCAACGC	-0.14
GGTGCCCA	-0.189
GCTGACAA	-0.0996
AAAATCCC	0.263
CTTGCAAC	-0.159
AAGCCTGA	-0.263
GTACTAGA	-0.178
CGCGGTCA	0.179
ACTTACAG	-0.248
ACATCGGG	0.13
GAACCTAC	-0.0584
ACTTAGTA	0.00926
GGTTGGCA	-0.173
CTAAGTCA	-0.157
CATTCGTC	0.00738

Sequence	PBM E-score
AATTCGCC	0.123
ATAGCTGC	-0.116
GCGGGCAA	0.187
CTACGTGA	-0.241
CCCAACTA	-0.0927
CCCGAGAG	0.182
ACTACGTA	0.0434
CCCATCTA	-0.0604
ACACCATA	-0.129
ATGATCCA	-0.0231
AGCATATC	-0.0308
GCGTTTGA	-0.124
AATATTGT	0.0529
AATCTAAC	-0.055
TAACCATA	-0.211
AAAGAGGG	-0.238
CTGCCATA	-0.0982
AGCGCTAC	-0.121
GTAGATGA	0.031
TGGATCCA	-0.155
GGCGAAAC	0.108
ATTTGCGC	0.167
GATCCCAC	0.0958
AATCTTAG	-0.139
AGTGTTAT	-0.0541

Sequence	PBM E-score
GAGCAAAA	-0.132
CACTACGC	-0.166
ATCCAGGA	-0.132
AACCATAC	-0.174
TGACTACA	-0.239
CAACTGCG	0.0666
CTCCCTCC	0.142
GAACAGCC	-0.0974
ACATTCGG	0.283
CACTTGGA	-0.0485
AGAGTCAC	-0.333
ACTAGTAA	-0.116
CAGGTAGG	-0.133
AGATACTA	0.0941
AGGCCCTA	-0.111
GACTGAAA	0.00029
AGCCATCA	-0.162
CGAAAACC	0.149
AATATTAT	0.14
CGTTAACC	-0.0032
TCTAGGAA	-0.216
GAGAAAGA	0.0968
CCGATTTA	0.396
ACCTAAGA	-0.207
ACAAATCT	-0.172

Sequence	PBM E-score
ATACCATG	-0.12
AGGAATAA	0.0369
ACCCTGCC	-0.0324
GGCTCGCA	-0.0539
ATTGGAAG	-0.0562
GCACAATA	-0.173
GATGCGAA	0.0139
ATGTATCC	-0.00064
CGACTTAA	-0.156
CGAACTGC	0.0356
CTCCTGCC	0.00663
GGCAATAA	0.135
AGAAACTG	-0.104
TGTCGAAA	-0.169
AGTAAGGG	0.135
ATCTAGTG	-0.173
CAGATTGA	-0.058
CAATAGTG	0.029
GGTGGAGA	-0.155
CTGGTGAC	-0.201
GGAAAGCA	0.173
AGGGGTGG	0.00466
GATCAAGC	-0.132
CAAGACTG	-0.242
CATCCGTA	0.183

Sequence	PBM E-score
GAGCACCA	-0.183
CACACGTG	-0.24
CCGCCAAG	-0.00632
CGCCTGGC	-0.0638
ACAAGACG	-0.0361
AGTTTAAT	-0.0337
TCTTGGCA	-0.115
AATCTAAG	-0.206
AAACCGCT	-0.0166
ACATGGTC	-0.24
CCTGAGCC	-0.229
CCAACATC	0.0521
AAACGAGC	-0.166
ACACGTCT	-0.176
ATTCACCA	-0.0283
CTTGTACA	-0.0117
CTACACCA	-0.133
ACGTGTGG	-0.215
CTCGGCAC	0.233
CGTTCTGC	0.0487
ACCAAGCC	-0.16
AGTTGTGG	-0.0534
AAGGCTAC	-0.175
CCCAGAAA	-0.0144
GGGCAAAC	0.178

Sequence	PBM E-score
TAGCCGGA	0.42
AACGACAG	-0.252
GACGCCAA	-0.216
GAAGAGTA	0.0345
CCAAGCTA	-0.224
AAATAGAG	-0.0285
CGGGAACA	0.192
GCGACAAA	-0.0407
ACACTGAA	0.00318
ATCTCAAA	-0.0373
GATATCAA	-0.0326
GAACTGCA	0.0105
TGTGGCAA	-0.0293
GACTCCAA	-0.221
CAAGACTA	-0.215
CATGGGAG	-0.179
CGCGGTAG	0.17
GCTACAGA	-0.21
CCTGACCA	-0.259
CAGACTTA	-0.264
TCTCCGAA	0.455
AACATACC	-0.0644
AGATTGAA	-0.00762
TCATACCA	-0.0176
ACAGGATA	-0.221

Sequence	PBM E-score
GCGGTAAA	0.198
CCCGCCCG	0.344
ACCTCCCC	0.0862
ATACCTCC	0.0526
ACGCTCCA	-0.0164
GCAATCGC	-0.00646
ATTGTCTA	0.0103
ATCTGATA	-0.0731
CGTAGGCA	-0.246
AATGGCTC	-0.126
CCACAATA	-0.0853
CTAATTGA	-0.0789
GCTCGTTA	-0.188
ATAACAAC	-0.0589
ATATTAAC	0.0939
GCATACCC	-0.0377
CTCTGCCA	-0.247
CTCGGACA	0.435
CCTAACTC	0.0405
CAAACGTC	-0.0656
GGGATGAA	0.0505
AAAACTTC	0.0738
AGTGCTTC	-0.0643
GAAGGTGA	0.02
ACTACTGA	-0.241

Sequence	PBM E-score
AGCATTAC	-0.149
ATAAACCA	-0.228
ATCGCCTC	-0.0212
ACTGCCGG	0.352
AAAGTATC	0.0379
TGCCTGAA	-0.315
AATCTCCG	0.484
AGGAATAG	0.102
CTCGGCCC	0.148
ACTCACAG	-0.196
CTCCGATC	0.46
GAGGCATA	0.112
CATTTCAA	-0.0817
GCTGGAAA	0.0147
AGCTGACC	-0.0832
CGCGAACG	0.0547
CGGCCTCC	0.298
GAATAGGC	0.0809
AAACGATC	-0.21
AAGGCCGA	0.4
ACCTACGC	-0.00943
AGTAACAT	-0.005
ATGGACGC	0.0575
AGACGTAG	-0.223
AGGGCACA	-0.231

Sequence	PBM E-score
GATCCTCA	0.0514
AGCATGAT	-0.122
GGGATCCC	0.325
ATGCCAGC	-0.0673
CAGTCTCA	-0.126
CAAGCTGA	-0.104
CTTCCTTA	-0.169
CCCTGTGC	-0.232
GATGTTGA	-0.114
GGGGTTTA	0.179
ACCCTACT	-0.0984
AAGGGGCA	-0.163
ATTATGGA	-0.0518
AAATGGGT	0.0649
CTGATCTC	-0.0675
CAAATCTC	0.169
GCACAACC	-0.0662
CAGTTGCC	-0.00087
GAAACGCC	0.234
AGTTTCGG	0.311
TGCAGCAA	-0.208
AGACAGGA	-0.101
CCGGGGGA	0.378
GAGGCATC	-0.234
ATCGCTGC	0.0948

Sequence	PBM E-score
ATGCAATG	-0.125
CATTATAC	0.00842
CTCATTCA	-0.0537
ATGAGCCC	-0.138
GCGTTGGA	-0.00673
CCAGCCTC	-0.302
CTTAAGAA	-0.14
AAACGGAC	0.197
GAGCCTGC	0.0182
TAAAGCCA	-0.169
CCAAGTCC	0.116
TCATGTCA	-0.237
AAGGCGCC	0.0608
CTGGGATC	-0.101
GCCCGGAA	0.423
CAGAATAG	-0.179
ACGTCCTG	-0.186
CTAACATC	-0.142
ACAAGGCT	-0.178
CCACCGCG	0.237
TACGTCGA	-0.0509
TACTCCGA	0.479
CCAGTGAG	-0.126
CCTGTCCA	-0.204
AATCGTCC	0.104

Sequence	PBM E-score
ACATGGCT	-0.162
ATGGATTA	-0.21
CCTCATAA	-0.0385
AGTTGGTG	-0.0285
GCGGCGAC	0.297
ACAACCAC	0.018
CCACCGGA	0.455
ATCATTGC	-0.153
AGACAAGC	-0.177
CTTCGGAC	0.399
TGATACCA	-0.0454
GAGAGATC	-0.102
AATTGGGT	0.0413
TCGATGCA	-0.216
AAATCGAC	-0.00446
AAACGCTC	-0.0138
CGTAGCAC	-0.0954
ATCGCCCA	-0.22
CTGACGTC	-0.287
AGCCGGCG	0.372
ACACGACA	-0.171
TCCGTAAA	0.357
GTAGAGCA	-0.323
CCCTCGGA	0.394
CAGGCCGA	0.139

Sequence	PBM E-score
ACAACGAT	-0.0259
CTTCTCAC	0.0661
CGACCCAG	-0.05
TCTGACCA	-0.209
CCTCGCAC	-0.0346
ACTCTGGG	-0.0835
AGCGCTCG	0.0273
CGATAACG	0.158
ACCAAAAT	-0.0259
CATGCATC	0.207
ACCCCCCC	-0.362
ACCCCGGC	0.355
CTCAAGTA	-0.216
AGGCCAGC	-0.295
GATAACGC	0.248
CAGATACA	-0.0537
TAGGTACA	-0.26
CAACATCA	-0.0651
CCTGCGGA	0.257
